Laboratory results taken from US7745575B1 (Cellpep Pharma Inc., priority 2004, dated 2010).
For some assays here: Not every detail of the peptide structures is certain; ends, links or a residue may be inferred. At least one compound was matched to its structure with a doubt left. Bridge positions count the residues as written; N and C are the ends. Peptide text beside a SMILES is read from it.

What was measured:
Assay type in all cases: cell-based
hKv3.2 = biological target: T1, hKv3.2 (Homo sapiens, UniProt Q96PR1); test: patch-clamp whole-cell recording, K+ current block; conditions: read-out: ID50 hKv3.2
T1 sequence (Q96PR1 1-638): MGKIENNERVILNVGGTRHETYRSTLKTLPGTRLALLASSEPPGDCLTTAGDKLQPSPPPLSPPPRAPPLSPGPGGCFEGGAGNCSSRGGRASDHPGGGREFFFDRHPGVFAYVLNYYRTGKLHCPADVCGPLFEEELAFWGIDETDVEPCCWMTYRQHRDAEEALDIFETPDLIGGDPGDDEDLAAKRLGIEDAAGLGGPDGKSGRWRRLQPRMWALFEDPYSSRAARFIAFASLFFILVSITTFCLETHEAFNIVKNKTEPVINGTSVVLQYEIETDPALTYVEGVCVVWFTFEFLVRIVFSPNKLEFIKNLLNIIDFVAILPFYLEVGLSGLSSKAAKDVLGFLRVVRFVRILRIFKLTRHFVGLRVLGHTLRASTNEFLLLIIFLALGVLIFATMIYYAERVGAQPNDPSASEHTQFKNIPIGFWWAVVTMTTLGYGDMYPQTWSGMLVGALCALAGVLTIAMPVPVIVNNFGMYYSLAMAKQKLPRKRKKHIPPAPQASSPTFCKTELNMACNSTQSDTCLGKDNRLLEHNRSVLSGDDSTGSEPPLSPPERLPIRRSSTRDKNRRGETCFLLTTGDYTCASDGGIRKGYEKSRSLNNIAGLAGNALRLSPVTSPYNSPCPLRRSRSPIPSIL
Description: (§1) Electrophysiological experiments were carried out at 22-24° C. using the patch-clamp whole-cell recording mode. Cells were bathed with mammalian Ringer's solution (in mM): 160 NaCl, 4.5 KCl, 2 CaCl2, 1 MgCl2, and 10 HEPES (pH 7.4 with NaOH), with an osmolarity of 290-320 mOsm. […] A syringe-driven perfusion device was used to exchange the external recording bath solution. Two internal pipette solutions were used, one for measuring voltage-gated K^+ currents that contained (in mM): 155 KF, 2 MgCl2, 10 HEPES, and 10 EGTA (pH 7.2 with KOH), with an osmolarity of 290-320 mOsm and another for measuring Ca^2+-activated K^+ currents that contained (in mM): 135 K-aspartate, 8.7 CaCl2, 2 MgCl2, 10 EGTA, 10 HEPES (pH 7.2 with KOH), with an osmolarity of 290-320 mOsm. A free [Ca^2+]i of 1 μM was calculated. All currents through voltage-gated K^+ channels were elicited by 200 ms depolarising voltage steps from −80 to +40 mV. Potassium currents through KCa1.1, KCa2.1 and KCa3.1 were elicited by 1 μM internal [Ca^2+]i and 400 ms voltage ramps from −120 to 0 mV (for KCa3.1 channel and KCa1.1 channel) and from −120 to +40 mV (for KCa2.1 channel). Electrodes were pulled from glass capillaries (Science Products, Germany), and fire-polished to resistances of 2.5-5 MΩ. Membrane currents were measured with an EPC-9 or EPC-10 patch-clamp amplifier (HEKA Elektronik, Lambrecht, Germany) interfaced to a Macintosh computer running acquisition and analysis software (Pulse and PulseFit). When voltage-gated K^+ currents were measured, the capacitive and leak currents were subtracted using a P/10 procedure. Series resistance compensation (>80%) was used for currents above 2 nA. The holding potential was −80 mV in all experiments.

mKv1.3 = mKv1.3 (Mus musculus, UniProt P16390); test: patch-clamp whole-cell recording, K+ current block; conditions: read-out: ID50 mKv1.3
Description: as §1

hIK1 (KCa3.1) = hIK1 (KCa3.1) (Homo sapiens, UniProt O15554); test: patch-clamp whole-cell recording, Ca2+-activated K+ current block; conditions: read-out: ID50 hIK1
Description: as §1

Structure (SMILES)	IC50 (hKv3.2)	IC50 (mKv1.3)	IC50 (hIK1 (KCa3.1))
CC[C@H](C)[C@@H]1NC(=O)[C@H](CCCCN)NC(=O)[C@@H](NC(=O)[C@H](CCCCN)NC(=O)[C@@H](NC(=O)[C@H](CC(N)=O)NC(=O)[C@@H](NC(=O)[C@@H](NC(=O)[C@@H](N)C(C)C)[C@@H](C)CC)[C@@H](C)CC)C(C)C)CSSC[C@@H]2NC(=O)[C@H](CCCCN)NC(=O)CNC(=O)[C@H](Cc3ccccc3)NC(=O)[C@H](CCCNC(=N)N)NC(=O)[C@H](CCSC)NC(=O)CNC(=O)[C@H](C)NC(=O)[C@H](CCCCN)NC(=O)[C@H](CCCCN)NC(=O)[C@@H]3CSSC[C@@H](C(=O)N[C@H](C(=O)N4CCC[C@H]4C(=O)N[C@@H](CCCCN)C(N)=O)[C@@H](C)O)NC(=O)[C@H](Cc4c[nH]cn4)NC(=O)[C@H](CSSC[C@H](NC(=O)[C@H](CCC(N)=O)NC(=O)[C@H](CCCNC(=N)N)NC(=O)[C@H](CO)NC1=O)C(=O)N[C@@H](CC(C)C)C(=O)N[C@@H](CCC(=O)O)C(=O)N1CCC[C@H]1C(=O)N3)NC(=O)[C@H](CCCCN)NC(=O)CNC(=O)[C@H](CC(N)=O)NC(=O)[C@H](CCSC)NC2=O [[Δ^1]-OsK1-NH2] (H-VIINVKCKISRQCLEPCKKAGMRFGKCMNGKCHCTPK-NH2; disulfide 7-27, 13-32, 17-34)	> 1000 nM	0.038 ± 0.003 nM	
CC[C@H](C)[C@@H]1NC(=O)[C@H](CCCCN)NC(=O)[C@@H](NC(=O)[C@H](CCCCN)NC(=O)[C@@H](NC(=O)[C@H](CC(N)=O)NC(=O)[C@@H](NC(=O)[C@@H](NC(=O)[C@@H](NC(=O)CN)C(C)C)[C@@H](C)CC)[C@@H](C)CC)C(C)C)CSSC[C@@H]2NC(=O)[C@H](CCCCN)NC(=O)CNC(=O)[C@H](Cc3ccccc3)NC(=O)[C@H](CCCNC(=N)N)NC(=O)[C@H](CCSC)NC(=O)CNC(=O)[C@H](C)NC(=O)[C@H](CC(=O)O)NC(=O)[C@H](CCCCN)NC(=O)[C@@H]3CSSC[C@@H](C(=O)N[C@H](C(=O)N4CCC[C@H]4C(=O)N[C@@H](CCCCN)C(=O)O)[C@@H](C)O)NC(=O)[C@H](Cc4c[nH]cn4)NC(=O)[C@H](CSSC[C@H](NC(=O)[C@H](CCC(N)=O)NC(=O)[C@H](CCCNC(=N)N)NC(=O)[C@H](CO)NC1=O)C(=O)N[C@@H](CC(C)C)C(=O)N[C@@H](CCCCN)C(=O)N1CCC[C@H]1C(=O)N3)NC(=O)[C@H](CCCCN)NC(=O)[C@H](CCCNC(=N)N)NC(=O)[C@H](CC(N)=O)NC(=O)[C@H](CCSC)NC2=O		0.045 ± 0.006 nM	> 1000 nM
CC[C@H](C)[C@@H]1NC(=O)[C@H](CCCCN)NC(=O)[C@@H](NC(=O)[C@H](CCCCN)NC(=O)[C@@H](NC(=O)[C@H](CC(N)=O)NC(=O)[C@@H](NC(=O)[C@@H](NC(=O)[C@@H](NC(=O)CNC(C)=O)C(C)C)[C@@H](C)CC)[C@@H](C)CC)C(C)C)CSSC[C@@H]2NC(=O)[C@H](CCCCN)NC(=O)CNC(=O)[C@H](Cc3ccccc3)NC(=O)[C@H](CCCNC(=N)N)NC(=O)[C@H](CCSC)NC(=O)CNC(=O)[C@H](C)NC(=O)[C@H](CC(=O)O)NC(=O)[C@H](CCCNC(=N)N)NC(=O)[C@@H]3CSSC[C@@H](C(=O)N[C@H](C(=O)N4CCC[C@H]4C(=O)N[C@@H](CCCCN)C(=O)O)[C@@H](C)O)NC(=O)[C@H](Cc4c[nH]cn4)NC(=O)[C@H](CSSC[C@H](NC(=O)[C@H](CCC(N)=O)NC(=O)[C@H](CCCCN)NC(=O)[C@H](CO)NC1=O)C(=O)N[C@@H](CC(C)C)C(=O)N[C@@H](CCCCN)C(=O)N1CCC[C@H]1C(=O)N3)NC(=O)[C@H](CCCCN)NC(=O)CNC(=O)[C@H](CC(N)=O)NC(=O)[C@H](CCSC)NC2=O (Ac-GVIINVKCKISKQCLKPCRDAGMRFGKCMNGKCHCTPK-OH; disulfide 8-28, 14-33, 18-35)			> 1000 nM
CC[C@H](C)[C@@H]1NC(=O)[C@H](CCCCN)NC(=O)[C@@H](NC(=O)[C@H](CCCCN)NC(=O)[C@@H](NC(=O)[C@H](CC(N)=O)NC(=O)[C@@H](NC(=O)[C@@H](NC(=O)[C@@H](NC(=O)CN)C(C)C)[C@@H](C)CC)[C@@H](C)CC)C(C)C)CSSC[C@@H]2NC(=O)[C@H](CCCCN)NC(=O)CNC(=O)[C@H](Cc3ccccc3)NC(=O)[C@H](CCCNC(=N)N)NC(=O)[C@H](CCSC)NC(=O)CNC(=O)[C@H](C)NC(=O)[C@H](CCCCN)NC(=O)[C@H](CCCCN)NC(=O)[C@@H]3CSSC[C@@H](C(=O)N[C@H](C(=O)N4CCC[C@H]4C(=O)N[C@@H](CCCCN)C(N)=O)[C@@H](C)O)NC(=O)[C@H](Cc4c[nH]cn4)NC(=O)[C@H](CSSC[C@H](NC(=O)[C@H](CCC(N)=O)NC(=O)[C@H](CCCNC(=N)N)NC(=O)[C@H](CO)NC1=O)C(=O)N[C@@H](CC(C)C)C(=O)N[C@@H](CCC(=O)O)C(=O)N1CCC[C@H]1C(=O)N3)NC(=O)[C@H](CCCCN)NC(=O)CNC(=O)[C@H](CC(N)=O)NC(=O)[C@H](CCSC)NC2=O [OsK1-NH2]	> 1000 nM		
CC[C@H](C)[C@@H]1NC(=O)[C@H](CCCCN)NC(=O)[C@@H](NC(=O)[C@H](CCCCN)NC(=O)[C@@H](NC(=O)[C@@H](N)CC(N)=O)C(C)C)CSSC[C@@H]2NC(=O)[C@H](CCCCN)NC(=O)CNC(=O)[C@H](Cc3ccccc3)NC(=O)[C@H](CCCNC(=N)N)NC(=O)[C@H](CCSC)NC(=O)CNC(=O)[C@H](C)NC(=O)[C@H](CC(=O)O)NC(=O)[C@H](CCCCN)NC(=O)[C@@H]3CSSC[C@@H](C(=O)N[C@H](C(=O)N4CCC[C@H]4C(=O)N[C@@H](CCCCN)C(=O)O)[C@@H](C)O)NC(=O)[C@H](Cc4c[nH]cn4)NC(=O)[C@H](CSSC[C@H](NC(=O)[C@H](CCC(N)=O)NC(=O)[C@H](CCCNC(=N)N)NC(=O)[C@H](CO)NC1=O)C(=O)N[C@@H](CC(C)C)C(=O)N[C@@H](CCCCN)C(=O)N1CCC[C@H]1C(=O)N3)NC(=O)[C@H](CCCCN)NC(=O)CNC(=O)[C@H](CC(N)=O)NC(=O)[C@H](CCSC)NC2=O (H-NVKCKISRQCLKPCKDAGMRFGKCMNGKCHCTPK-OH; disulfide 4-24, 10-29, 14-31)	> 1000 nM	0.038 ± 0.001 nM	> 1000 nM
CC[C@H](C)[C@@H]1NC(=O)[C@H](CCCCN)NC(=O)[C@@H](NC(=O)[C@@H](N)CCCCN)CSSC[C@@H]2NC(=O)[C@H](CCCCN)NC(=O)CNC(=O)[C@H](Cc3ccccc3)NC(=O)[C@H](CCCNC(=N)N)NC(=O)[C@H](CCSC)NC(=O)CNC(=O)[C@H](C)NC(=O)[C@H](CC(=O)O)NC(=O)[C@H](CCCCN)NC(=O)[C@@H]3CSSC[C@@H](C(=O)N[C@H](C(=O)N4CCC[C@H]4C(=O)N[C@@H](CCCCN)C(=O)O)[C@@H](C)O)NC(=O)[C@H](Cc4c[nH]cn4)NC(=O)[C@H](CSSC[C@H](NC(=O)[C@H](CCC(N)=O)NC(=O)[C@H](CCCNC(=N)N)NC(=O)[C@H](CO)NC1=O)C(=O)N[C@@H](CC(C)C)C(=O)N[C@@H](CCCCN)C(=O)N1CCC[C@H]1C(=O)N3)NC(=O)[C@H](CCCCN)NC(=O)CNC(=O)[C@H](CC(N)=O)NC(=O)[C@H](CCSC)NC2=O (H-KCKISRQCLKPCKDAGMRFGKCMNGKCHCTPK-OH; disulfide 2-22, 8-27, 12-29)	> 1000 nM	0.045 ± 0.002 nM	> 1000 nM
CC[C@H](C)[C@@H]1NC(=O)[C@H](CCCCN)NC(=O)[C@@H](NC(=O)[C@H](CCCCN)NC(=O)[C@@H](NC(=O)[C@H](CC(N)=O)NC(=O)[C@@H](NC(=O)[C@@H](NC(=O)[C@@H](NC(=O)CN)C(C)C)[C@@H](C)CC)[C@@H](C)CC)C(C)C)CSSC[C@@H]2NC(=O)[C@H](CCCCN)NC(=O)CNC(=O)[C@H](CC(N)=O)NC(=O)[C@H](CCCNC(=N)N)NC(=O)[C@H](CCSC)NC(=O)CNC(=O)[C@H](C)NC(=O)[C@H](CC(=O)O)NC(=O)[C@H](CCCCN)NC(=O)[C@@H]3CSSC[C@@H](C(=O)N[C@H](C(=O)N4CCC[C@H]4C(=O)N[C@@H](CCCCN)C(=O)O)[C@@H](C)O)NC(=O)[C@H](Cc4c[nH]cn4)NC(=O)[C@H](CSSC[C@H](NC(=O)[C@H](CCC(N)=O)NC(=O)[C@H](CCCNC(=N)N)NC(=O)[C@H](CO)NC1=O)C(=O)N[C@@H](CC(C)C)C(=O)N[C@@H](CCCCN)C(=O)N1CCC[C@H]1C(=O)N3)NC(=O)[C@H](CCCCN)NC(=O)CNC(=O)[C@H](CC(N)=O)NC(=O)[C@H](CCSC)NC2=O (H-GVIINVKCKISRQCLKPCKDAGMRNGKCMNGKCHCTPK-OH; disulfide 8-28, 14-33, 18-35)	> 1000 nM		> 1000 nM
